Test results published in patent publication US20210252104A1, “ANTIBACTERIAL PEPTIDE MONOMERS AND COMBINATIONS FOR CO-THERAPY” (ARREVUS, INC., priority 2018, published 2021).
Non-standard residues stand in square brackets, D forms with d. Residues, ends and D or L forms follow the SMILES beside them. Ac6c = NC1(C(=O)O)CCCCC1

Test system: E. coli 5770
Test: Mice challenged ip with E. coli 5770, blood bacterial counts
Details: of 3 mice

CC(C)C[C@H](NC(=O)[C@H](Cc1ccc(O)cc1)NC(=O)[C@@H]1CCCN1C(=O)[C@H](CCCNC(=N)N)NC(=O)[C@@H]1CCCN1C(=O)[C@H](CCCCN)NC(=O)[C@H](CC(=O)O)NC(=O)[C@@H]1CCCN1C(=O)[C@H](CCCNC(=N)N)NC(=O)C1(N)CCCCC1)C(=O)N1CCC[C@H]1C(=O)N[C@@H](CCCNC(=N)N)C(=O)N1CCC[C@H]1C(=O)N[C@@H](CCCNC(=N)N)C(=O)N1CCC[C@H]1C(=O)N1CCC[C@H]1C(=O)N[C@@H](CCCNC(=N)N)C(=O)N1CCC[C@H]1C(=O)N[C@H](C(=O)N[C@@H](CCCNC(=N)N)C(N)=O)C(C)C [Example 1, Chex-RPDKPRPYLPRPRPPRPVR-NH2] (H-[Ac6c]RPDKPRPYLPRPRPPRPVR-NH2)
Number of animals with bacterial counts below the detection limit of 1,000 CFU/mL (2.5 mg/kg ip, 8 h): (0/3) | Number of animals with bacterial counts below the detection limit of 1,000 CFU/mL (2.5 mg/kg ip, 12 h): (1/3) | Number of animals with bacterial counts below the detection limit of 1,000 CFU/mL (2.5 mg/kg ip, 16 h): (1/3) | Number of animals with bacterial counts below the detection limit of 1,000 CFU/mL (2.5 mg/kg ip, 24 h): (1/3) | Number of animals with bacterial counts below the detection limit of 1,000 CFU/mL (5 mg/kg ip, 8 h): (0/3) | Number of animals with bacterial counts below the detection limit of 1,000 CFU/mL (5 mg/kg ip, 12 h): (0/3) | Number of animals with bacterial counts below the detection limit of 1,000 CFU/mL (5 mg/kg ip, 16 h): (2/3) | Number of animals with bacterial counts below the detection limit of 1,000 CFU/mL (5 mg/kg ip, 24 h): (3/3) | Number of animals with bacterial counts below the detection limit of 1,000 CFU/mL (10 mg/kg ip, 8 h): (0.3) | Number of animals with bacterial counts below the detection limit of 1,000 CFU/mL (10 mg/kg ip, 12 h): (0.3) | Number of animals with bacterial counts below the detection limit of 1,000 CFU/mL (10 mg/kg ip, 16 h): (3/3) | Number of animals with bacterial counts below the detection limit of 1,000 CFU/mL (10 mg/kg ip, 24 h): (3/3)
